{"source": "paper PMC12040169", "about": "(PLOS Biology, 2025)", "note": "The other results are listed elsewhere or left out."}
{"test_system": "T1, C. trachomatis L2/434/Bu expressing GFP (CTL2-GFP)", "T1 construct": "L2/434/Bu GFP intracellular growth in HeLa cells", "design": "species or system HeLa; C. trachomatis total inclusion area by high-content imaging, normalised to DMSO", "conditions": "total inclusion area; 28.5 h, 10 µM; inhibitor", "outline": "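Following bulk GFP and resorufin fluorescence reads, infected cells were fixed, Hoechst-stained and imaged on a high-content platform. Inclusion total area and number per well served as growth proxies; nuclei counts indicated host viability. MICs were derived as for the fluorescence assay.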"}
{"smiles": "CC1(C)Cc2c(sc(NC(=O)c3ccccc3Cl)c2C(=O)O)CO1", "note": "[CBK126806]", "% of control remaining": 86.9819}
{"smiles": "O=C(Cn1c(-c2ccco2)cc2cccnc21)N1CCCC1", "note": "[CBK282683]", "% of control remaining": 104.765}
{"smiles": "Cc1nc(CN2CCN(c3ccc4nnc(C(F)(F)F)n4n3)CC2)cs1", "note": "[CBK239750]", "% of control remaining": 47.0437}
{"smiles": "OCCOc1ncnc2ccccc12", "note": "[CBK001412]", "% of control remaining": 98.6308}
{"smiles": "COc1cccc2ncn(CCCc3c(C)n[nH]c3C)c(=O)c12", "note": "[CBK307153]", "% of control remaining": 90.9518}
{"smiles": "CC(C)c1ccc(NS(=O)(=O)c2ccc(F)c(C(=O)O)c2)cc1", "note": "[CBK297940]", "% of control remaining": 91.2692}
{"smiles": "Cc1nc(S(=O)(=O)N2CCOC3(CCCC3)C2)cn1C", "note": "[CBK304834]", "% of control remaining": 47.4235}
{"smiles": "Fc1ccc(CCN2CCC(c3nc(-c4cccnc4)no3)CC2)cc1", "note": "[CBK051464]", "% of control remaining": 67.679}
{"smiles": "O=C(O)c1ccc(S(=O)(=O)NCc2ccccc2)cc1", "note": "[CBK262093]", "% of control remaining": 104.627}
{"smiles": "Cc1cccc(OCC(=O)NC(=S)Nc2cccc(C(=O)O)c2C)c1", "note": "[CBK265067]", "% of control remaining": 80.9091}
{"smiles": "CN(C)c1ccc(C2C(C(=O)c3ccccc3)=C(O)C(=O)N2CCCC(=O)O)cc1", "note": "(stereo not shown) [CBK263393]", "% of control remaining": 107.056}
{"smiles": "CC(c1ccc(Cl)cc1Cl)N(C)C(=O)c1ccc(S(C)(=O)=O)cc1", "note": "(stereo not shown) [CBK242418]", "% of control remaining": 85.3045}
{"smiles": "C=C(C)CN1CCN(C(=O)c2ccnc3ccc(Cl)cc23)CC1", "note": "[CBK282617]", "% of control remaining": 107.848}
{"smiles": "NC(=O)c1ccccc1NC(=O)CCN1C(=O)c2cccc([N+](=O)[O-])c2C1=O", "note": "[CBK263118]", "% of control remaining": 83.2894}
{"smiles": "Nc1ccccc1SC(CC(=O)c1ccccc1)c1ccc2c(c1)OCO2", "note": "(stereo not shown) [CBK074823]", "% of control remaining": 76.2169}
{"smiles": "CCn1c(C(C)Oc2ccc(Cl)cc2)n[nH]c1=S", "note": "(stereo not shown) [CBK015099]", "% of control remaining": 67.9426}
{"smiles": "CC1(C)NC(=O)N(CC(O)CNC23CC4CC(CC(C4)C2)C3)C1=O", "note": "(stereo not shown) [CBK264823]", "% of control remaining": 106.971}
{"smiles": "Cc1c(-c2ccc(Cl)cc2Cl)nc2ccccc2c1C(=O)NCCCc1ccccc1", "note": "[CBK262635]", "% of control remaining": 89.678}
{"smiles": "COC(=O)c1cc(C#N)c(=O)n(CC(O)COc2c(C)cccc2C)c1", "note": "(stereo not shown) [CBK305709]", "% of control remaining": 77.764}
{"smiles": "CCOC(=O)c1[nH]c2ccccc2c1NC(=O)CS(=O)(=O)c1ccc(C)cc1", "note": "[CBK160162]", "% of control remaining": 109.939}
{"smiles": "COc1ncc(-c2cnc3[nH]c(=O)n([C@H](C)c4ccccc4)c3n2)cn1", "note": "[CBK064401]", "% of control remaining": 69.4294}
{"smiles": "CN1CCC(N2CCN(C(=O)c3ccc4nc[nH]c4c3)CC2)CC1", "note": "[CBK149099]", "% of control remaining": 96.322}
